Source: PubChem BioAssay AID184 (DTP/NCI, 2004)
Toxic doses and inconclusive results are not listed. Certain results were filed several times, with different values. This is not the full list of results. The source may hold further records. Results that share an entry are repeated measurements in other runs, samples, wells, individuals or studies.

Test system: BALB/cJ mice, ADJ-PC-6 ip tumor, median survival T/C
Assay: NCI In Vivo Anticancer Drug Screen. Data for tumor model ADJ-PC-6 (intraperitoneal) in BALB/cJ mice
Details: endpoint: median survival time; dose: 0.25 mg/kg/injection; schedule: Q01DX009 (ip); vehicle: alkali diluted with saline; higher = longer survival
Protocol: The antitumor activity of compounds was measured in mice bearing transplantable tumors. Survival or tumor size were measured and the results are expressed as the measurement made in the treated group (T) divided by the measurement made in the vehicle treated control group (C). The tumor model used in this assay is ADJ-PC-6 (intraperitoneal) in BALB/cJ mice

Nc1nc(=S)c2[nH]cnc2[nH]1
T/C: 116 % of control and 171 % of control
